# Data: PubChem BioAssay AID720709 (National Center for Advancing Translational Sciences (NCATS), 2013)
# Among all 360,000 compounds or so, about 520 (0.14%) were called active. Inconclusive means that the source gave no clear call. Such entries were picked first, then a sample of the others. The call rests on the fitted dose curve; in most records, active means well fitted inhibition curve with a large enough effect; inconclusive means small, poorly fitted or top-dose-only effect; inactive means no such curve, though single readings can be large or run the other way. Potencies of inconclusive entries are left out as doubtful fits.
# Molecular target: Rap guanine nucleotide exchange factor 3 (Homo sapiens) (UniProt O95398)
# Test: qHTS for Antagonist of cAMP-regulated guanine nucleotide exchange factor 3 (EPAC1): primary screen; further: nearly all actives have a fitted effect of over 50% in size;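 on activity change, negative = inhibition: plate controls were vehicle for no effect and positive control for full effect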
# Settings: EPAC1 GEF assay, Rap1b-BODIPY-GDP exchange fluorescence; activity change, negative = inhibition: at 115 µM (top of the series)
# Potency means the concentration at half of the fitted maximal effect; tags describe the fitted curve by direction and shape.
# UniProt O95398, sequence (O95398 whole entry, looked up): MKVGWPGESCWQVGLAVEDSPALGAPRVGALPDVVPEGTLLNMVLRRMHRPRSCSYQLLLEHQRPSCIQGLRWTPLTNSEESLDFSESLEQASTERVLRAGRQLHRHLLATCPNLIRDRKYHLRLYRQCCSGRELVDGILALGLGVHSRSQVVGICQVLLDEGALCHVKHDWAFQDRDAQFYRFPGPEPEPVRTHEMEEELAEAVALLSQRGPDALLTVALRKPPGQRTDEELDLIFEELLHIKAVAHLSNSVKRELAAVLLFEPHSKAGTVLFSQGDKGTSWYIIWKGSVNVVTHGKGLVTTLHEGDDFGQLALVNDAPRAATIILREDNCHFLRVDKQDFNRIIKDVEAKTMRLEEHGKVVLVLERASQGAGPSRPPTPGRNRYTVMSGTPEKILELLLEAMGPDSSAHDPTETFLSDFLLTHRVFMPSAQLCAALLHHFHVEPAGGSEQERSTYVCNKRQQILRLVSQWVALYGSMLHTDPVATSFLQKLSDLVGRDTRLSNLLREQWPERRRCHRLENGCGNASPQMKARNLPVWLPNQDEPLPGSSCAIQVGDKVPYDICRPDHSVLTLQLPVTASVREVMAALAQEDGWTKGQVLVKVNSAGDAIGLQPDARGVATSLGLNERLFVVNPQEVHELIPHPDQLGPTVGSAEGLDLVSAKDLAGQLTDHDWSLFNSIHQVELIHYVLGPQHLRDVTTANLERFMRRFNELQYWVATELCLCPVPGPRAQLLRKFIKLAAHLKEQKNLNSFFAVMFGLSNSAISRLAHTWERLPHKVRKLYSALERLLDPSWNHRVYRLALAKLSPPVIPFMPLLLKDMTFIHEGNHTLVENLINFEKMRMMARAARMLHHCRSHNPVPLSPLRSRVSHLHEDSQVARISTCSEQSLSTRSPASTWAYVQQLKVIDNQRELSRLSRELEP
SMILES,Potency,"activity change, negative = inhibition"
CNC(=O)C1CC(=O)N(c2ccc(OCC(=O)Nc3ccc(F)cc3)cc2)C1 (stereo unspecified),"inconclusive [inhibitor, single point]",
CCOc1c(OC(C)=O)ccc(/C=C/c2ccc3cccc(OC(C)=O)c3n2)c1[N+](=O)[O-],inactive,
O=C(CNC(=O)c1ccccc1Br)Nc1cccc(S(=O)(=O)Nc2ccccc2Cl)c1,"inconclusive [inhibitor, single point]",
S=c1[nH]nc(-c2ccccc2)n1C1C=CCCC1 (stereo unspecified),inactive,
CN(C)c1nc(OCCNC(=O)Nc2ccccc2)nc(N(C)C)n1,inactive,
NC1=NC(=O)/C(=C/c2cn(CCC(=O)O)nc2-c2ccc(Cl)cc2)S1,"inconclusive [inhibitor, partial curve]",
Cc1ccc(NC(=O)c2ccccc2OCC(=O)Nc2ccccc2F)cc1S(=O)(=O)N(C)C,"inconclusive [inhibitor, full curve, poor fit]",
c1ccc2[nH]c(-c3ccc4c(c3)OCO4)nc2c1,,inconclusive: -30.7% [inhibitor]
O=C(CSc1oc(-c2cccs2)nc1S(=O)(=O)c1ccc(F)cc1)NCC1CCCO1 (stereo unspecified),"inconclusive [inhibitor, single point]",
CCOC(=O)c1c(-c2ccc(-c3ccccc3)cc2)csc1NC(=O)CCC(=O)O,"inconclusive [inhibitor, single point]",
CCCCN(C)C(=O)c1nc2ccccn2c1CN1CCC[C@H]1CO,inactive,
O=S(=O)(NCCc1ccccc1)c1ccc(Br)s1,"inconclusive [inhibitor, partial curve]",
CCC(=O)Nc1cccc(C(=O)/C=C/c2cc(Br)ccc2OC)c1,"inconclusive [inhibitor, partial curve]",
COc1ccc(/C=C2/N=C(SC3CCOC3=O)N(c3cccc(OC)c3)C2=O)cc1 (stereo unspecified),"inconclusive [inhibitor, full curve, poor fit]",
CN(C(=O)CSc1nnc(-c2cccc(F)c2)n1N)C1CCS(=O)(=O)C1 (stereo unspecified),"inconclusive [inhibitor, single point]",
CCC1=NN(C(=O)c2ccc(Br)cc2)C(O)(c2ccccc2)C1 (stereo unspecified),inactive,
O=C1/C(=C/c2cccnc2)SC(=S)N1NS(=O)(=O)c1ccccc1,"inconclusive [inhibitor, partial curve]",
CN(C)CCCN(C(=O)c1ccc(S(=O)(=O)N2CCCCCC2)cc1)c1nc2c(F)cccc2s1,"inconclusive [inhibitor, full curve, poor fit]",
CCC(CO)Oc1cc(NC(=O)c2ccc(N)cc2)c2ncn(C(C)C)c2c1 (stereo unspecified),"inconclusive [inhibitor, single point]",
Brc1ccccc1OCCCOc1cccc2cccnc12,"inconclusive [inhibitor, full curve]",
Cc1ccc(-c2cc(C(=O)Nc3ccc(S(=O)(=O)Nc4onc(C)c4C)cc3)c3ccccc3n2)cc1,"inconclusive [inhibitor, single point]",
Cc1nnc2ccc(-c3ccc(NS(=O)(=O)c4ccccc4[N+](=O)[O-])cc3)nn12,inactive,

SMILES,Potency,"activity change, negative = inhibition"
O=C(NNC(=O)c1ccccc1O)c1ccc(-c2ccc([N+](=O)[O-])cc2)o1,"inconclusive [inhibitor, single point]",
COc1ccc(/C=C2/N=C3CCCCCN3C2=O)cc1,"inconclusive [inhibitor, full curve]",
Cc1ccsc1C(=O)NNC(=O)COc1ccccc1Cl,inactive,
OCC[C@@H]1C[C@@H](O)[C@H](O)[C@@]2(OCc3ccccc32)O1,inactive,
CCNc1ccccc(C(=O)/C=C/c2ccc3c(c2)OCO3)c1=O,"inconclusive [inhibitor, partial curve]",
CS(=O)(=O)c1ccc(C(=O)OCc2nnc(-c3ccccc3)o2)cc1[N+](=O)[O-],active: 89.1 µM,
O=C(O)COc1cccc(/C=C2/SC(=S)N(Cc3ccccc3)C2=O)c1,"inconclusive [inhibitor, partial curve, poor fit]",
CC1(C(=O)NS(=O)(=O)c2ccc(Cl)s2)CCN1C(=O)C1(c2ccccc2)CCCC1 (stereo unspecified),"inconclusive [inhibitor, partial curve]",
Cc1ccc(NC(=O)c2cccnc2C(=O)Nc2ccc(C)cc2)cc1,"inconclusive [inhibitor, full curve, poor fit]",
Cc1ccc(C(=O)NC2(O)C(=O)c3ccccc3C2=O)cc1C,"inconclusive [inhibitor, single point]",
Oc1c(Br)cc(C=Nc2ccc3nc(-c4ccccc4)[nH]c3c2)c(O)c1Br,"inconclusive [inhibitor, full curve]",
CCOc1ccc(N2CC(C(=O)Nc3cccc(S(=O)(=O)N4CCCCC4)c3)CC2=O)cc1 (stereo unspecified),"inconclusive [inhibitor, full curve, poor fit]",
Cc1cc(C)nc(NS(=O)(=O)c2ccc(Br)s2)c1,"inconclusive [inhibitor, single point]",
COc1ccccc1NC(=O)N1CCc2c([nH]c3ccccc23)C1C(F)(F)F (stereo unspecified),"inconclusive [inhibitor, single point]",
O=P(c1ccccc1)(c1ccccc1)N(c1ccccc1)c1ccccc1,inactive,
CS/C(N)=N/N=C/c1cc(C)ccc1O,"inconclusive [inhibitor, single point]",
C=CCn1c(SCC(=O)Nc2c(C)n(C)n(-c3ccccc3)c2=O)nnc1-c1cccnc1,inactive,
Cc1cccc(C(=O)Nc2cccc(C(=O)Nc3cc(C)ccn3)c2)c1,"inconclusive [inhibitor, partial curve]",
NC(=O)c1c(NC(=O)c2ccccc2)sc2c1CCN(Cc1ccccc1)C2,inactive,
CC(O)[C@@]1(O)CC[C@H]2[C@@H]3CC[C@H]4C[C@@H](O)CC[C@]4(C)C3=CC[C@@]21C (stereo partly specified),"inconclusive [inhibitor, single point]",
Nn1c(=S)[nH]c2sc3c(c2c1=O)CCCC3,inactive,
COc1cc(/C=C2\SC(=O)N(CCN)C2=O)ccc1OS(=O)(=O)c1cc(C)ccc1C,"inconclusive [inhibitor, single point]",

SMILES,Potency,"activity change, negative = inhibition"
O=C(O)C(=O)/C(=C\c1ccc(Cl)cc1)c1ccc2ccccc2n1,"inconclusive [inhibitor, partial curve]",
CC(C)(O)c1ccccc1CC[C@@H](SCC1(CC(=O)O)CC1)c1cccc(/C=C/c2ccc3ccc(Cl)cc3n2)c1,"inconclusive [inhibitor, single point]",
O=C1c2ccccc2C(Nc2cccnc2)N1Cc1ccccc1Cl (stereo unspecified),"inconclusive [inhibitor, single point]",
Cc1ccc(S(=O)(=O)N2CCN(C(=O)/C=C/c3ccco3)CC2)cc1,inactive,
CCOC(=O)C#CC(CCc1ccccc1)OS(N)(=O)=O (stereo unspecified),"inconclusive [inhibitor, partial curve, poor fit]",
COc1ccc(S(=O)(=O)N2CCOCC2)cc1NC(=O)COC(=O)c1ccc([N+](=O)[O-])s1,"inconclusive [inhibitor, partial curve, poor fit]",
O=C1NC(c2ccc(-c3ccccc3[N+](=O)[O-])o2)C(C(=O)c2ccccc2)C(O)(C(F)(F)F)N1 (stereo unspecified),,inconclusive: -13.5% [inhibitor]
Cc1c(NC(=O)C(C)Oc2cccc(F)c2)c(=O)n(-c2ccccc2)n1C (stereo unspecified),"inconclusive [inhibitor, single point]",
CCOc1ccc(CNC(=S)N/N=C/c2ccc(OC)c(OC)c2)cc1,inactive,
CCOC(=O)C1=C(C)NC(C)=C(C(=O)OCC)C1C(=O)O,inactive,
CCN(CC1COc2ccccc2O1)C(=O)CN1C(=O)NC(C)(c2ccc(C)cc2)C1=O (stereo unspecified),inactive,
C[C@@H]1CCCCO[C@@H](CN(C)Cc2ccc(Cl)c(Cl)c2)[C@@H](C)CN([C@H](C)CO)C(=O)c2cc(NC(=O)CCC(F)(F)F)ccc2O1,inactive,
CC1=NN(Cc2ccccc2)C(=O)C1C(c1ccncc1)C(C#N)C#N (stereo unspecified),"inconclusive [inhibitor, partial curve]",
CCCSc1ccc([C@@H]2[C@@H]3C(=O)N(CC)C(=O)[C@@H]3[C@]3(C(=O)OC)CCCCN23)cc1,"inconclusive [inhibitor, partial curve]",
O=[N+]([O-])c1cccnc1Oc1ccc(C2SCCS2)cc1,inactive,
CCOC(=O)C1=C(NC(=S)NC(=O)c2ccccc2)c2ccccc2CC1(C)CC (stereo unspecified),inactive,
CCOc1ccc(N(CC(=O)Nc2ccc(C)c(C)c2)S(C)(=O)=O)cc1,inactive,
Cn1nc(C(F)(F)F)c(-c2ccc(Br)cc2)c1NC(=O)CSCC(=O)O,"inconclusive [inhibitor, full curve, poor fit]",
COc1ccccc1-n1c(SCC(=O)Nc2ccc(Br)cc2)nc(O)cc1=O,"inconclusive [inhibitor, partial curve]",
COc1ccc(NC(=S)Nc2ccccn2)cc1,"inconclusive [inhibitor, full curve, poor fit]",
Cc1cc(C)cc(OCC(=O)OCC(=O)NCCC2=CCCCC2)c1,"inconclusive [inhibitor, full curve]",
COc1ccc2cc(C(=O)C3CCCN(C(=O)c4ccnn4C)C3)ccc2c1 (stereo unspecified),"inconclusive [inhibitor, single point]",
